Source: publication PMC4336329 (PLoS ONE, 2015)
Screen size: about 310,000 compounds; about 2,200 (0.71%) showed an effect of 50% or more. The effect is printed as a negative number. The list shows a part of the results.

Molecular target: human ether-à-go-go-related gene (hERG) potassium channel (human, UniProt Q12809)
Assay: primary screen, population patch clamp on CHO cells stably expressing hERG

Sequence of human ether-à-go-go-related gene (hERG) potassium channel (Q12809 whole entry, looked up): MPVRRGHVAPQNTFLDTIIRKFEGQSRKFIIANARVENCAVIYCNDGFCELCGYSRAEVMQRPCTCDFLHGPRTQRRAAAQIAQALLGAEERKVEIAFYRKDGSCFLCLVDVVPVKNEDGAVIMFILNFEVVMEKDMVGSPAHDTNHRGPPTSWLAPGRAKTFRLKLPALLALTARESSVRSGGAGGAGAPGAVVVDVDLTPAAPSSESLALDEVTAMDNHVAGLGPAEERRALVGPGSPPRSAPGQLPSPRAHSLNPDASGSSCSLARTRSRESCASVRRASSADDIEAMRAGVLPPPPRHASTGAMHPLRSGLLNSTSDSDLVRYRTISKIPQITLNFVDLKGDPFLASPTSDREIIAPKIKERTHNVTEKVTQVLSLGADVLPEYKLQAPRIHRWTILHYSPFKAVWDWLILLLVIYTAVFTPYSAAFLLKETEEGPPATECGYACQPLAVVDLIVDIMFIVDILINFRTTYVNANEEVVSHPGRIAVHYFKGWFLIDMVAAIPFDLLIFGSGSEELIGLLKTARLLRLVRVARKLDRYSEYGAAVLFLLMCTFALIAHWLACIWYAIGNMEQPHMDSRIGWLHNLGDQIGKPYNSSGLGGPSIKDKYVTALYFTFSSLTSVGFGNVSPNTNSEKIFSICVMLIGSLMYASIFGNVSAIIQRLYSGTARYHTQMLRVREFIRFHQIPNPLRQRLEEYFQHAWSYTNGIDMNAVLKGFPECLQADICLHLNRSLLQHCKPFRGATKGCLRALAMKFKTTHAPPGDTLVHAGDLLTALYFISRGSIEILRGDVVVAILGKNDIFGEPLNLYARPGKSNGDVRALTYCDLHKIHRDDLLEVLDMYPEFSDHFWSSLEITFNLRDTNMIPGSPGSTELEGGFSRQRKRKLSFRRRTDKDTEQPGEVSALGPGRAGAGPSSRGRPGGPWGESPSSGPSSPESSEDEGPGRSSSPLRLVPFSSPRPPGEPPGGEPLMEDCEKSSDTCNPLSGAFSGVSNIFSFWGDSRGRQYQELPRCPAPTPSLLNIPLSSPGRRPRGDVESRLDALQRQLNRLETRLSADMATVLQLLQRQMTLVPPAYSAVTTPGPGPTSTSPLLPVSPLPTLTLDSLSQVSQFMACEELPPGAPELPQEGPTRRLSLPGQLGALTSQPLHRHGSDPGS

| Structure (SMILES) | hERG current change (%, negative = inhibition) at 1uM |
| --- | --- |
| OC(COc1cc(Cl)c(Cl)cc1Cl)CN1CCN(c2ncccn2)CC1 (centres unmarked) | 2.33% |
| CCOC(=O)c1c(-c2ccccc2Cl)csc1NC(=O)CSc1nc(C)cc(=O)[nH]1 | 2.68% |
| CN=C1S/C(=C\c2ccc(O)c(OC)c2)C(=O)N1C | 14% |
| O=c1[nH]nc(-c2ccc(F)cc2)cc1Cc1cccs1 | 5.41% |
| O=C(N=C1SC2CS(=O)(=O)CC2N1CCc1ccccc1)C1CCCCC1 (centres unmarked) | 2.75% |
| CS(=O)(=O)Nc1ccc(Oc2ncccn2)cc1 | 12.9% |
| CC(C)NC(=O)COc1coc(CN2CCN(c3cccc(Cl)c3)CC2)cc1=O | 9.34% |
| Cc1ccc(S(=O)(=O)N(C)c2ccccc2C(=O)Nc2ccc3c(c2)OCCO3)cc1 | 10.8% |
| CCOC(=O)N1CCN(C(=O)C2CCN(C(=O)c3ccc(C(C)(C)C)cc3)CC2)CC1 | 4.36% |
| CCOc1ccc(Nc2ncnc3c2cnn3Cc2ccccc2)cc1 | 8.72% |
| N#Cc1cc([N+](=O)[O-])ccc1NC(=O)COC(=O)C12CC3CC(CC(C3)C1)C2 | 5.17% |
| Br.C1=C(c2cccc3ccccc23)N2CCN=C2S1 | -2.67% |
| CCc1nc(OCC(=O)c2ccccc2)c(C#N)c2c1COC(C)(C)C2 | 11.1% |
| O=C1C=C(c2cc(F)ccc2F)C[C@@H](c2ccc(F)cc2)C1 | 0.529% |
| COc1ccccc1N1CCN(CC(O)COc2cccc3ccccc23)CC1.Cl (centres unmarked) | -11.3% |
| Cc1ccc(NC(=O)CNC(=O)C2CCCCC2)nc1 | 9.95% |
| COc1ccc(-n2c(=O)c3ccccc3n(Cc3ccccc3F)c2=O)cc1OC | 7.12% |
| O=C(NC(=S)NCC1CCCO1)C(c1ccccc1)c1ccccc1 (centres unmarked) | 7.08% |
| CCOC(=O)/C(C#N)=C/c1cc(C)n(-c2ccccc2)c1C | 19.1% |
| CN(CC(=O)Nc1ccc(S(=O)(=O)N2CCCC2)cc1)CC(=O)Nc1cccc(F)c1 | -0.496% |
| COc1ccccc1NS(=O)(=O)/C=C/c1ccccc1 | 4.41% |
| O=C(NCCCNC(=O)c1ccc(F)cc1)c1ccc(F)cc1 | 17.3% |

| Structure (SMILES) | hERG current change (%, negative = inhibition) at 1uM |
| --- | --- |
| COc1cccc(NC(=O)N2CCCC(C(=O)NCc3ccc(F)cc3)C2)c1 (centres unmarked) | 4.35% |
| N#Cc1nc(COc2ccc(Cl)cc2)oc1N1CCCC1 | -2.53% |
| CCOC(=O)C1CCCN(CC(O)COc2cccc(C)c2)C1.Cl (centres unmarked) | 5.64% |
| NC(=O)c1cccc2c1-c1ccccc1/C2=N/NC(N)=S | 13% |
| Cc1ccccc1NC(=O)c1csc2c1CCCC2 | -1.22% |
| NS(=O)(=O)c1ccc(NC(=S)NCc2ccc(Cl)cc2)cc1 | 13.1% |
| CC(Oc1ccc(C(=O)NCCc2ccccc2)cc1)C(=O)O (centres unmarked) | 0.477% |
| CN1C(=O)/C(=C/C=C2/CCCN2C)N(C)C1=S | 10.7% |
| COc1ccc(CC(=O)O/N=C(\N)c2ccc(Br)cc2)cc1OC | 12.3% |
| CSc1ccc(-c2nc(CSCC(=O)NC3CC3)c(C)o2)cc1 | 5.23% |
| O=c1c2ccccc2nc2sc(Nc3ccc(F)cc3)nn12 | -0.635% |
| O=S(=O)(Nc1ccc2ccccc2n1)c1ccccc1Cl | 1.8% |
| Cc1ccc(CNC(=O)C2(c3cccs3)CCOCC2)cc1 | -0.342% |
| CCCCNS(=O)(=O)c1ccc(NC(=O)c2c(-c3ccccc3Cl)noc2C)cc1 | 9.85% |
| N=c1c2c(ncn1CCCO)Oc1ccc3ccccc3c1C2c1ccccc1 (centres unmarked) | 3.38% |
| CC1(C)CC(=O)C2=C(C1)c1c(ccc3ccccc13)NC2c1ccc(OCC(=O)O)cc1 (centres unmarked) | 10.8% |
| O=C(/C=C/c1ccccc1)NCCSc1ccc(Cl)cc1 | 10.7% |
| COc1cccc(NC(=O)CSCc2cc(=O)n3ccsc3n2)c1 | 4.88% |
| COc1cc(SC#N)ccc1N=Cc1c(C)[nH]n(-c2ccc(C)cc2)c1=O | -5.65% |
| CCCS(=O)(=O)N1CCC(C(=O)NCc2ccc3c(c2)OCO3)CC1 | -0.895% |
| O=C(O)COc1ccccc1/C=N/NC(=O)CSc1nc2ccccc2c(=O)n1-c1ccccc1 | 5.27% |
| Cc1cc(C(=O)N/N=C/c2ccc(N(C)C)cc2)c2ccccc2n1 | 18.7% |

| Structure (SMILES) | hERG current change (%, negative = inhibition) at 1uM |
| --- | --- |
| COc1ccc(S(=O)(=O)N2CCOC2CNC(=O)C(=O)NCCc2ccccc2)cc1C (centres unmarked) | 7.75% |
| Cc1ccc(OCc2cc(C(=O)N3CCC(Oc4cccnc4)CC3)no2)cc1C | -9.84% |
| Cc1ccc(C)c(Cn2c(=O)n(-c3ccc(CC(=O)NCc4ccco4)cc3)c(=O)c3sccc32)c1 | 5.54% |
| Cc1c(C(=O)N(C)CCn2ccnc2C)oc2c(F)cccc12 | -3.26% |
| CCOc1ccccc1OCCOc1ccccc1CC | 17.7% |
| COc1ccc(OC)c(NC(=O)CSc2nnc(C3CCCCC3)n2-c2ccccc2)c1 | 10.2% |
| O=C(c1ccncc1)c1ccc(NC(=O)c2cccs2)cc1 | 14.7% |
| c1ccc(-c2ccc(C3CCCN3)cc2)cc1 (centres unmarked) | 7.34% |
| Cc1noc(C)c1C(=O)N1CCCC(C(=O)c2cccc(C(F)(F)F)c2)C1 (centres unmarked) | -6.11% |
| Cc1ccc(C)c(NC(=S)NNC(=S)Nc2ccc(C(C)C)cc2)c1 | 22.4% |
| CCOc1ccc(CNC(=O)CCc2cn(C)c3ccccc23)cc1OC | -6.4% |
| Cc1cc(C)c2c(c1)/C(=N\N=c1\sc3ccccc3n1C)C(=O)N2 | 13.2% |
| Cc1ccc2c(C)c(C(=O)N3CCN(C4CCS(=O)(=O)C4)CC3)oc2c1C (centres unmarked) | 8.83% |
| COCCn1c(=NC(=O)CSCC(=O)N2CCOCC2)sc2cc(C)ccc21 | 5.17% |
| Cc1ccc(-c2nnn(Cc3nc4ccccc4s3)n2)cc1 | 6.93% |
| Cc1cccc2cc3c(N)c(C(=O)N4CCc5ccccc54)sc3nc12 | 10.8% |
| CCN(CC)S(=O)(=O)c1ccc(N2CCOCC2)c(NC(=O)c2cc(C)cc(C)c2)c1 | 0.146% |
| CN1C[C@@H]2C(c3ccccc3)C3(c4ccccc4)CC2(C3)[C@H]1c1ccccc1 (some centres unmarked) | -8.54% |
| CCCNC(=O)Cn1nc(C(F)(F)F)c2c1CCC2 | -0.429% |
| COc1ccc(S(=O)(=O)N(CC(=O)NCc2ccco2)c2ccccc2OC)cc1 | -9.74% |
| O=C(COc1cccc(F)c1)NNC(=O)Cc1ccc(S(=O)(=O)N2CCOCC2)s1 | 6.28% |
| CCCn1c(N/N=C(C)\C=C\c2ccccc2)nc2c1c(=O)[nH]c(=O)n2C | 9.9% |

| Structure (SMILES) | hERG current change (%, negative = inhibition) at 1uM |
| --- | --- |
| COC(=O)C1=CN(Cc2ccc(OC)c(OC)c2)C=C(C(=O)OC)C1c1ccccc1F | 14.7% |
| Cc1nc2c(c3c1[nH]c1ccccc13)C(O)CC(C)(C)C2 (centres unmarked) | 0.553% |
| O=C(CCC1CCCCC1)NCCN1C2=NC[C@@H](Cc3ccccc3)N2C[C@H]1Cc1ccc(O)cc1 | -0.771% |
| COc1ccccc1CNC(=O)CNCC1CCCO1.O=C(O)C(=O)O (centres unmarked) | -5.21% |
| Nn1c(SCC(=O)Nc2ccc3c(c2)OCO3)nnc1-c1ccc(Cl)cc1 | 4.19% |
| Cc1cccc(NC(=O)C(C)OC(=O)c2ccccc2NS(=O)(=O)c2cc(C)c(C)c([N+](=O)[O-])c2)c1 (centres unmarked) | 11% |
| COc1ccc(CCNC(=O)C2CCN(S(=O)(=O)c3cccs3)CC2)cc1OC | 11% |
| Cc1ccc(C(=O)NNC(=O)CSc2nnc3c(n2)[nH]c2ccc(F)cc23)cc1 | 6.52% |
| CC(C)CNS(=O)(=O)c1ccc(OCC(=O)Nc2ccc(F)cc2F)cc1 | 13.7% |
| Cc1ccc(-n2c(O)c(C=Nc3ccccc3-c3n[nH]c(=S)[nH]c3=O)c3ccccc3c2=O)c(C)c1 | 3.45% |
| COc1ccc(C(O)P(=O)(Oc2ccccc2)Oc2ccccc2)cc1 (centres unmarked) | 14.6% |
| O=S1(=O)c2ccccc2N=NN1Cc1ccc(Cl)c(Cl)c1 | 5.49% |
| COc1cccc(C2=CC(c3ccccc3)n3nnnc3N2)c1 (centres unmarked) | 11% |
| COc1ccc(-c2nc3ccccc3c(=O)n2CCOc2c(C)cccc2C)cc1 | 6.35% |
| COc1ccc(C(C)=O)cc1COC(=O)c1ccc(OCc2c(C)noc2C)cc1 | 8.2% |
| CN(CCOc1ccc(Cl)cc1)CC(O)c1ccccc1.O=C(O)C(=O)O (centres unmarked) | -7.13% |
| CCn1c(=O)n(CC)c2cc(N3CCCC3)c(NC(=O)c3ccccc3C)cc21 | 10.4% |
| Cc1c(NC(=O)CSc2nnnn2C)c(=O)n(-c2ccccc2)n1C | 3.14% |
| C=CCNC(=O)CN1CCC(O)(c2ccccc2)CC1 | 8.21% |
| Cn1c(CCN2CCCCC2)nc2cc(NC(=O)COc3ccc([N+](=O)[O-])cc3)ccc21 | -14.2% |
